Molecules are shown by their SMILES. “And” between values parts separate entries of the source, which are not always exact repeats. Equal entries are not always repeated.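 Five concentrations, 48 hours, 96-well plates. GI50 is the concentration that inhibits growth by half. Definition used: TGI = concentration required for complete inhibition of growth.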

The subject of this test is NCI-H322M lung. In words: DTP human tumour cell line panel, 48 h.

One may read the GI50 as the concentration at which growth is held to half of that of the control. As a reminder, the TGI is the concentration at which net growth stops. Higher therefore signals lower sensitivity of the cells. As for `COc1ccc(C(C#N)=C2C=CC(=NO)C=C2)cc1`, the GI50 was 5.43 µM and the TGI amounted to 18.1 µM.
For `c1cc(CN2CCCNCCNCCCNCC2)ccc1CN1CCCNCCNCCCNCC1`, in that order: greater than 100 µM and greater than 100 µM.
`c1ccc2[nH]c3c(N=NC4=NCCN4)c4ccccc4c-3nc2c1` displayed a TGI of 14.6 µM.
Still for that read-out and setting: the figure for `N#CCCN(CCC#N)c1ccc(/C=C2\SC(=S)NC2=O)cc1` is greater than 100 µM; for `COc1ccc(OC)c(NC2=NCCO2)c1` it is greater than 100 µM.
`O=C(O)/C=C/c1ccc[c]([Sb](=[O])([OH])[OH])c1`: the GI50 was greater than 100 µM and the total growth inhibition concentration (TGI) was greater than 100 µM.
For `NC(=O)COc1c(Br)cc(Br)cc1Br`, the TGI was greater than 100 µM.
The same measure, in the same setting: with `CN(C)C(=S)/N=c1\ssc(=S)n1Cc1cccs1` the figure was greater than 100 µM; with `COC1=CC(=O)C2C(C1=O)[C@@H]1c3ccccc3OC(C)(C)[C@H]21` (stereo not given in full), greater than 100 µM; with `COc1cc(NS(C)(=O)=O)ccc1NCc1cnc2ccc3[nH]cccc3c12`, 66.7 µM.
Still for that read-out and setting: the figure for `CCN(CCCl)CCCCCNc1c2ccccc2nc2ccc(OC)cc12` is 4.11 µM.
Same read-out and setting: the figure for `Cc1c(-c2coc(-c3ccccc3)n2)c(=O)n(-c2ccccc2)n1C` is greater than 100 µM.
Regarding `C=C1C(=O)O[C@H]2[C@H]1CC/C(Cn1cc(Cc3c[nH]c4ccccc34)nn1)=C\CC[C@@]1(C)O[C@@H]21`, the GI50 was 8.63 µM and the concentration for total growth inhibition (TGI) came to 20.9 µM.
`Cc1c(NC(=O)CCl)c(=O)oc2c(C)c3occc(=O)c3cc12`: the TGI is 31.4 µM.
Regarding `CCCCCCCCCC(O)CC(=O)c1c(O)cccc1O` (stereo not given), the TGI turned out to be 53.7 µM.
Still for that read-out and setting: the figure for `CC(C)(CN1CCOCC1)C(=O)/C=C/c1ccc(/C=C/C(=O)C(C)(C)CN2CCOCC2)cc1` is 2.97 µM; for `O=C1C=CC(=O)C2C1Cc1ccccc1C2c1ccccc1` (stereo not given) it is greater than 100 µM; for `Cc1cc(C)nc(NS(=O)(=O)c2ccc(Nc3c4ccccc4nc4c(C(=O)Nc5ccc(S(=O)(=O)Nc6cc(C)on6)cc5)ccc(Cl)c34)cc2)n1` it is 43 µM.
Consider `O=C1/C(=C/c2ccc(F)c(F)c2)CN(C(=O)C(Cl)Cl)C/C1=C\c1ccc(F)c(F)c1`, for which the GI50 was 0.264 µM and the TGI worked out at 0.981 µM.
For `O=C(/C=C/c1ccc2c(c1)OCO2)NCCc1ccco1`, the TGI is greater than 100 µM.
The compound `Oc1cc(O)c2c(c1)O[C@H](c1cc(O)c(O)c(O)c1)[C@@H](O)C2` registered a TGI greater than 100 µM.
`O=C1OC(c2ccccc2)(c2ccccc2)c2ccc3ccc(F)cc3c21` displayed a TGI greater than 100 µM.
The compound `Cc1ccc(/C(O)=C/c2nc3cccnc3[nH]c2=O)cc1` showed a total growth inhibition concentration (TGI) greater than 100 µM.
As to `Nc1nc(Nc2ccc(Cl)cc2)sc1C(=O)c1c[nH]c2ccccc12`, the TGI amounted to 38.3 µM.
For `COC1CC(C)C(OC)c2cc(O)cc(c2O)NC(=O)/C(C)=C/C=C\C(C)C(OC(N)=O)/C(C)=C\C(C)C1OC` (stereo not given), the GI50 is 0.862 µM and 2.48 µM; the concentration for total growth inhibition (TGI) is 27.6 µM and 22.8 µM.
Consider `O=C1Nc2ccccc2/C1=C\c1cccc(/C=C2/C(=O)Nc3ccccc32)n1`, for which the GI50 was 1.07 µM and the TGI worked out at 2.54 µM.
`O=c1nc(NC(c2ccccc2)(c2ccccc2)c2ccccc2)ccn1CCCl`: the TGI was determined as 68.8 µM.
The same measure, in the same setting: with `C/C=C/c1cc2c(c(=O)o1)C(=O)[C@@H](O)[C@H](C)O2` the figure was 48.2 µM.
Turning to `O=C(Nc1ccc2ncnc(Nc3ccc(Oc4cccc(F)c4)c(Cl)c3)c2c1)c1ccc(CN2CCOCC2)cc1`, the GI50 is 2.37 µM and the TGI is 12.6 µM.
Compound `CC(=O)OC12CC(C(F)(F)F)(C(F)(F)F)OC1(OC(C)=O)CC(C(F)(F)F)(C(F)(F)F)O2` (stereo not given) displayed a TGI of 11.7 µM.
In turn, `CCCCCCCCCCCCCCCCNCC(O)CN` (stereo not given) displayed a TGI of 13 µM.
Same read-out and setting: the figure for `CCOP(=O)(OCC)/C(C#N)=C\c1ccsc1` is greater than 100 µM.
With `O=C1CSC(c2ccc(-c3nc4ccccc4[nH]3)cc2)=N1`, the GI50 was greater than 50 µM and the TGI was greater than 50 µM.
With `CCCCCCCCCCCC[N+](C)(C)Cc1ccccc1`, the GI50 is 17 µM and the TGI came out at 32.8 µM.
`N/C(=N\NC(=O)c1nc2ccccc2s1)c1ccccn1` yielded a TGI greater than 52.4 µM.
Take `Cc1cc2c(cc1C)[n+](=O)c(C(=O)/C=C/c1ccc3c(c1)OCO3)c(C)n2[O-]`: the TGI was greater than 100 µM.
On the same count and under the same terms, the figure for `CC1(C)Oc2ccc3c(=O)cc(-c4cccs4)oc3c2C1C(=O)O` (stereo not given) is greater than 100 µM; for `COc1cc(OCc2nc3cc(C(F)(F)F)ccc3nc2-c2ccccc2)cc(OC)c1OC` it is greater than 100 µM.
As to `COc1cc(-c2nn(-c3cccc(NC(=O)NCCNS(=O)(=O)c4ccc(Cl)cc4)c3)cc2-c2ccncc2)ccc1Cl`, the GI50 is 1.81 µM and the TGI turned out to be 8.1 µM.
`Cc1c(N)nc([C@H](CC(N)=O)NC[C@H](N)C(N)=O)nc1C(=O)N[C@H](C(=O)N[C@H](C)[C@@H](O)CC(=O)N[C@H](C(=O)NC(O[C@@H]1O[C@@H](C)[C@@H](N)[C@@H](O)[C@H]1O)C(O)c1nc(-c2nc(C(=O)NCCCCN)cs2)cs1)[C@@H](C)O)[C@@H](O[C@@H]1O[C@@H](CO)[C@@H](O)[C@H](O)[C@@H]1O[C@H]1O[C@H](CO)[C@@H](O)[C@H](OC(N)=O)[C@@H]1O)c1c[nH]cn1` (stereo not given in full) had a TGI greater than 50 µM.
On the same count and under the same terms, the figure for `O=c1c(Nc2ccccc2)cn(CCOc2ccc(Cl)cc2)c(=O)n1CCOc1ccc(Cl)cc1` is greater than 100 µM.
Regarding `CN(C)C[C@H]1CCn2c(c(C3=C(c4cn(C)c5ccccc45)C(=O)NC3=O)c3ccccc32)C1`, the GI50 is 4.32 µM and the TGI is 12.2 µM.
The matching figures for `O=c1cc(-c2ccccc2)oc2ccc(OC/C(=N/O)c3ccc(F)cc3)cc12`: 5.1 µM and 24.1 µM.
For `N/C(=N\S(=O)(=O)c1ccc(-c2ccccn2)s1)Nc1ccc(Cl)cc1`, the TGI amounted to 39.5 µM.
`Nc1ncnc2c1ncn2CCCC(c1ccccc1)P(=O)(O)O` (stereo not given) gave a TGI greater than 100 µM.
On to `COc1ccc(OC)c(NC(=O)c2cccc(NC3=C(Cl)C(=O)N(Cc4ccccc4)C3=O)c2)c1`, for which the GI50 was greater than 100 µM and the TGI was greater than 100 µM.
For `CC/C=C\C[C@H](O)C/C=C1/C(=O)C=C[C@@H]1C/C=C\CCCC(=O)OC(C)C`, the GI50 is 1.64 µM and the TGI worked out at 4.21 µM.
For `CCC#CC[C@H](O)C/C=C1/C(=O)C=C[C@@H]1C/C=C\CCCC(=O)OC`, in that order: 3.46 µM and 10.2 µM.
The compound `O=C(NNS(=O)(=O)c1ccc(Br)cc1)c1ccc(Cl)cc1NC(=O)C12CC3CC(CC(C3)C1)C2` gave a TGI of 39.2 µM. This counts as double-digit micromolar.
On to `C[C@]12CC[C@@H]3c4ccc(O)cc4CC[C@H]3[C@@H]1CC[C@@H]2NS(=O)(=O)c1cccc(Cl)c1`, for which the GI50 is 4.62 µM and the TGI was 17.7 µM.
As to `CC(C)NCC(O)c1ccc(O)c2ncccc12` (stereo not given), the TGI was greater than 100 µM.
In turn, `COC(NC(N)=O)C(=O)O` (stereo not given) returned a TGI greater than 100 µM.
Consider `COc1ccc2c3c(c(C(=O)O)oc13)CCC2`, for which the TGI was greater than 100 µM.
As to `Cc1cc(C(=O)Nc2cc(Oc3ccc4nc(NC(=O)C5CC5)cn4n3)ccc2C)n(C)n1`, the GI50 was greater than 10 µM and the TGI was greater than 10 µM.
`N#C/C=c1/c2ccccc2n2nc3ccccc3c12` yielded a TGI greater than 100 µM.
`CC(=O)Oc1c2c(c(OC(C)=O)c3c1n(C(C)=O)c1ccccc1n3C(C)=O)n(C(C)=O)c1ccccc1n2C(C)=O` gave a concentration for total growth inhibition (TGI) greater than 100 µM.
On the same count and under the same terms, the figure for `Cc1c(OCCCOc2ccc3c(=O)cc(-c4ccccc4)oc3c2C)ccc2c(=O)cc(-c3ccccc3)oc12` is greater than 100 µM.

For the origin of these results see PubChem BioAssay (NCI).
